The text below walks through data of ChEMBL document CHEMBL4888484, “Replenishing the malaria drug discovery pipeline: Screening and hit evaluation of the MMV Hit Generation Library 1 (HGL1) against asexual blood stage Plasmodium falciparum ,using a nano luciferase reporter read-out” (2022).

SMILES strings stand for the structures. In all, about 150,000 compounds went through this assay and about 540 (0.36%) showed an effect of 50% or more. The list shows a part of the results.

In this assay the test system is Plasmodium falciparum. The experiment in a line: Primary screen in NF54 nanoGlo assay, in single point, at 2uM, 72h; a lower Z score goes with more inhibition. The assay is classed as functional, Erythrocyte. Particulars: timepoint 72 hour.
In the case of `CCC(CC)CNC(=O)c1ccc(-n2nc(-c3nnc(C)o3)cc2C(C)(C)C)cc1`, the % Inhibition (commonly the drop in the measured response relative to a control, in per cent) was -7% and the Z score was 0.98.
Turning to `COc1cc(OC)cc(C(=O)NC(C)(C)CO)c1`, the “% Inhibition” value is -18% and the Z score was 2.4.
Consider `CNCCCOc1ccc(C)cc1OC`, for which the “% Inhibition” value is reported as -4% and the Z score is given as 0.53.
Turning to `Cc1nc(C)c(-c2cc(-c3ccc4c(c3)OCCO4)nc(N)c2C#N)s1`, the “% Inhibition” value is given as -4% and the Z score stood at 0.7.
For the molecule `CCOc1nnc(CN2CCCC[C@@H]2Cn2cncn2)s1`, the “% Inhibition” value was -5% and the Z score was found to be 0.7.
With `Cn1cc(C(=O)N[C@@H]2C[C@H]2C2CCCCC2)c(C2CC2)n1`, the “% Inhibition” value was determined as 15% and the Z score was -1.96.
As for `C[C@]1(CNS(=O)(=O)c2ccc(C(F)F)cc2)CCC(=O)N1`, the “% Inhibition” value is -8% and the Z score amounted to 1.09.
`COc1cccc(C#N)c1NC(=O)COC[C@H]1CCCO1`: the “% Inhibition” value is given as -8% and the Z score came to 1.3.
On to `COc1cc(OC)nc(NC2CC(F)(F)C2)n1`, for which the “% Inhibition” value is reported as 0% and the Z score is given as -0.05.
On to `Cc1[nH]ncc1CCCNc1ccc(C(=O)N(C)C)cn1`, for which the “% Inhibition” value is -4% and the Z score is 0.51.
As for `c1ccc(-n2cnnc2[C@@H]2CCCCN2Cc2ccncc2)cc1`, the “% Inhibition” value is -1% and the Z score is on record as 0.16.
Turning to `C[C@H](OC(=O)c1ccncc1)c1ccc(Cl)cn1`, the “% Inhibition” value is given as 10% and the Z score is on record as -1.06.
For `Cc1cc([C@H](O)c2cccnc2)nn1C`, the “% Inhibition” value is on record as 0% and the Z score is -0.03.
With `CCc1cc(CNC(=O)C[C@H]2C(=O)NCCN2CC2CCCCC2)on1`, the “% Inhibition” value is -3% and the Z score is 0.47.
For `O=S1(=O)CC2(CCC(Nc3c[nH]nc3-c3ccccc3)CC2)C1`, the “% Inhibition” value is reported as 7% and the Z score is recorded as -0.89.
With `CCOC1CC(NC(=O)[C@@H](O)Cc2ccccc2)C12CCOCC2` (some centres undefined), the “% Inhibition” value is given as -17% and the Z score was 2.17.
Consider `CC(C)c1cnc(CNc2nnc(Cc3ccsc3)o2)s1`, for which the “% Inhibition” value was found to be 3% and the Z score is recorded as -0.4.
For the molecule `CCC1c2cccn2CCN1C(=O)CCC1(Cc2ccc(Cl)cc2)CCC(=O)N1` (centres undefined), the “% Inhibition” value is given as -7% and the Z score turned out to be 1.46.
In the same order, the values of `COCc1cn([C@H]2CO[C@H]3[C@@H]2OC[C@H]3O)nn1` are 19% and -2.16.
In the same order, the values of `c1ccc(Cc2nc3ncc4c(n3n2)CCCCC4)cc1` are 5% and -0.7.
With `Cc1ncc(CO)c(CN2CCc3[nH]cnc3[C@@H]2Cc2ccccc2)c1O`, the “% Inhibition” value is recorded as 2% and the Z score is listed as -0.31.
For `CCCCn1c(N)c(N(Cc2ccco2)C(=O)C2CCN(C(C)=O)CC2)c(=O)[nH]c1=O`, the “% Inhibition” value is given as -7% and the Z score was 1.02.
`O=S(=O)(N[C@@H]1COc2ccccc2C1)c1ccc(Cl)s1`: the “% Inhibition” value was 12% and the Z score is listed as -1.62.
With `COc1ccccc1N1CCN(C(=O)Cn2cc(S(=O)(=O)Cc3cccc(Cl)c3)c3ccccc32)CC1`, the “% Inhibition” value was -3% and the Z score came out at 0.43.
Take `CCC(NC(C)C(=O)NC(=O)NC)c1ccc(C)cc1` (centres undefined): the “% Inhibition” value was -11% and the Z score was determined as 1.04.
Regarding `Cc1cc(CNC(=O)c2nc[nH]c2C(F)(F)F)cc(C)n1`, the “% Inhibition” value was -9% and the Z score is given as 1.72.
`O=C(C[C@H]1CCS(=O)(=O)C1)NOCc1ccccc1`: the “% Inhibition” value is recorded as -8% and the Z score came out at 1.03.
Regarding `CC1(c2ccccc2)COC2(OC1)C(=O)N(CN1CCN(Cc3ccccc3)CC1)c1ccccc12` (centres undefined), the “% Inhibition” value is recorded as 3% and the Z score is listed as -0.4.
Take `Cc1nc(N(C)C2CCCCC2)ncc1[C@H](C)NC(=O)c1ccoc1`: the “% Inhibition” value is -16% and the Z score stood at 1.99.
Take `COc1cccc(CNC(=O)CCc2c(OC)nc3c(c(C)nn3-c3cccc(F)c3)c2C)c1`: the “% Inhibition” value is listed as -5% and the Z score is 0.74.
On to `CC[C@H](C)N(CCO)c1ncnc2ccsc12`, for which the “% Inhibition” value is -6% and the Z score was 0.6.
For the molecule `COc1ccc(-c2cc3c(=O)n(CC(=O)N4CCN(C)CC4)ncn3n2)cc1`, the “% Inhibition” value amounted to 6% and the Z score is given as -0.81.
For the molecule `CC1CCCC(OCC(=O)Nc2ccnc(N(C)C)n2)C1` (centres undefined), the “% Inhibition” value was -2% and the Z score is 0.28.
With `Oc1cccc(CNc2cccc3cccnc23)c1`, the “% Inhibition” value was 27% and the Z score is -3.62.
As for `CC(=O)N[C@H]1CN(C(=O)Nc2ccc(C)cc2)C[C@@H]1c1ccc(C)cc1`, the “% Inhibition” value is -16% and the Z score was 1.5.
Consider `O=C(O)Cn1nccc1[C@H]1CCCN(C/C=C/c2ccc(F)cc2)C1`, for which the “% Inhibition” value is -7% and the Z score came to 1.38.
On to `CC1=C(C(=O)N2CCC[C@H]2c2nc3ccccc3s2)CCCO1`, for which the “% Inhibition” value was 3% and the Z score is -0.37.
In the case of `Cc1nc2ccccc2n1[C@H]1CCN(C(=O)c2ccoc2)C1`, the “% Inhibition” value was -11% and the Z score is on record as 1.51.
In the same order, the values of `O=S(=O)(Cc1ccc(Cl)cc1)N1CC(Oc2cccnc2)C1` are -2% and 0.25.
In the case of `CC1CCN(C(=O)c2cc(S(=O)(=O)N3CCC[C@H](C(=O)NC4CCCC4)C3)c[nH]2)CC1`, the “% Inhibition” value is -11% and the Z score was 1.09.
Regarding `CCc1ccc(CN2CCc3[nH]cnc3[C@@H]2c2cccn2-c2ncccn2)o1`, the “% Inhibition” value is -1% and the Z score was 0.27.
As to `O=C(Nc1nncs1)N1CCC[C@H]1c1ccc2c(c1)OCCO2`, the “% Inhibition” value is given as -6% and the Z score stood at 0.76.
